Laboratory results as given in PubChem BioAssay (NCATS).
Several values for one entry are separate records, joined by “and”; a condition that tells them apart may be missing. Equal entries are not always repeated. The inconclusive results got no clear call from the source; some entries with a clear call stand among them for comparison. Potencies of inconclusive entries are doubtful fits and often do not repeat. Activity calls are given as the source filed them. Calls follow the shape of the dose curve; as a rule, active = well fitted curve in the direction sought with a large enough effect; inconclusive = small, poorly fitted or top-dose-only effect, or another doubt; inactive = no such curve, though single readings can be large; an effect the other way counts as inactive or inconclusive.

How the values were obtained:
[1] = Viability qHTS for spleen associated tyrosine kinase inhibitor (SYKi) drug resistant MV4-11 cells (AID 1963824); details: SYKi-resistant MV4-11 viability, CellTiter-Glo, 72 h; series mostly up to 45 µM; also: nearly all actives have a fitted effect of over 35% in size
Outline: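 SYK inhibitor-resistant MV4-11 AML cells, 500 per well, added to predispensed compounds and incubated 72 hr at 37 C, 5% CO2. Viability measured by CellTiter-Glo luminescence after 10 min at room temperature.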

[2] = Quantitative highthroughput screen to assess conditional lethalithy of NOMO1 cells grown in RPMI1640 with untreated serum (RPMI+s) (AID 1963876); details: NOMO1 AML cells in RPMI+serum, CellTiter-Glo viability, 48 h; viability: at 45.8 µM (top of the series); also: nearly all actives have a fitted effect of over 35% in size;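 as to Viability: 100% = DMSO wells and 0% = empty wells without cells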
Outline: (§1)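 Each medium arm—HPLM with 10% dialyzed FBS, or RPMI1640 with 5 mM glucose and 10% untreated or dialyzed FBS—was screened against an 11-point, 3-fold compound titration for 48 h at 37 °C, with CellTiter-Glo luminescence as endpoint.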

[3] = Quantitative highthroughput screen to assess conditional lethalithy of NOMO1 cells grown in Human Plasma-Like Medium with dialyzed fetal bovine serum (HPLM+ds) (AID 1963878); details: NOMO1 AML cells in HPLM+ds, CellTiter-Glo viability, 48 h; viability: at 45.8 µM (top of the series); also: nearly all actives have a fitted effect of over 35% in size
Outline: as §1

[4] = Quantitative highthroughput screen to assess conditional lethalithy of P12 Ichikawa cells grown in RPMI1640 with dialyzed fetal bovine serum (RPMI+ds) (AID 1963880); details: ATP luminescence, 48 h; Potency: P12-Ichikawa viability; series mostly up to 45.8 µM; also: nearly all actives have a fitted effect of over 35% in size;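 as to Viability: 100% = DMSO wells and 0% = empty wells on each plate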
Outline: as §1

[5] = Quantitative highthroughput screen to assess conditional lethalithy of P12 Ichikawa cells grown in RPMI1640 with untreated serum (RPMI+s) (AID 1963881); details: ATP luminescence, 48 h; Potency: viability; series mostly up to 45.8 µM; also: nearly all actives have a fitted effect of over 35% in size;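 as to Viability: 100% = DMSO wells and 0% = empty wells without cells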
Outline: as §1

[6] = Quantitative highthroughput screen to assess conditional lethalithy of SEM cells grown in Human Plasma-Like Medium with dialyzed fetal bovine serum (HPLM+ds) (AID 1963882); details: SEM B-ALL cells in HPLM+ds, CellTiter-Glo viability, 48 h; series mostly up to 45.8 µM; also: nearly all actives have a fitted effect of over 35% in size
Outline: as §1

[7] = Quantitative highthroughput screen to assess conditional lethalithy of SEM cells grown in RPMI1640 with unreated serum (RPMI+s) (AID 1963883); details: SEM B-ALL cells, CellTiter-Glo viability, 48 h; viability: at 45.8 µM (top of the series); also: nearly all actives have a fitted effect of over 35% in size;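 as to Viability: 100% = DMSO wells and 0% = empty wells without cells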
Outline: as §1

[8] = Quantitative highthroughput screen to assess conditional lethalithy of SEM cells grown in RPMI1640 with dialyzed fetal bovine serum (RPMI+ds) (AID 1963884); details: SEM B-ALL cells, RPMI+dialyzed FBS, CellTiter-Glo viability, 48 h; viability: at 45.8 µM (top of the series); also: nearly all actives have a fitted effect of over 35% in size
Outline: as §1

[9] = Cellular viability qHTS for adrenocortical cancer (ACC) cell line SW-13 (AID 1963989); details: SW-13 ACC cells viability, CellTiter-Glo, 48 h; activity (max response): stronger effect = lower value; also: nearly all actives have a fitted effect of over 65% in size;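 as to activity (max response): cells grown in serum-free medium with ITS supplement; % is scaled to controls: 0 for no effect and ±100 for the full control effect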
Outline: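 Luminescent ATP read-out (CellTiter-Glo, 20 min at room temperature) measured metabolically competent SW-13 cells after 48 h compound treatment. Final concentrations spanned up to 46 uM; bortezomib served as positive control.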

[10] = Quantitative highthroughput screen to assess conditional lethalithy of NOMO1 cells grown in RPMI1640 with dialyzed fetal bovine serum (RPMI+ds) (AID 1963877); details: NOMO1 in RPMI+dialyzed FBS viability, ATP luminescence, 48 h; series mostly up to 45.8 µM; also: nearly all actives have a fitted effect of over 30% in size;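 as to Viability: 100% = DMSO control wells and 0% = empty wells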
Outline: as §1

[11] = Cellular viability qHTS for adrenocortical cancer (ACC) cell line NCI-H295R (AID 1963990); details: CellTiter-Glo ATP luminescence, 48 h; activity change, negative = viability loss: at 46.1 µM (top of the series); also: nearly all actives have a fitted effect of over 60% in size
Outline: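 IC50 and maximal efficacy derive from four-parameter logistic modelling of titration curves, with reads scaled between DMSO-only wells (0%) and doxorubicin hydrochloride (100% inhibition). Compounds spanned up to 46 uM over 48 h.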

[12] = Quantitative highthroughput screen to assess conditional lethalithy of P12 Ichikawa cells grown in Human Plasma-Like Medium with dialyzed fetal bovine serum (HPLM+ds) (AID 1963879); details: ATP luminescence, 48 h; Potency: viability; series mostly up to 45.8 µM; also: nearly all actives have a fitted effect of over 35% in size
Outline: as §1
Potency is read from the fitted curve at half-maximal effect; tags tell the direction and shape of the fitted curve.

CC(C)C[C@@H](C(=O)N[C@H](C(=O)OC1CCCC1)c1ccccc1)[C@H](O)C(=O)NO
active: Potency [1] 74.2 nM
inconclusive: Potency [2] 33.2 µM [cytotoxic, single point] | Potency [3] 29.6 µM [cytotoxic, single point] | Potency [4] 23.5 µM [cytotoxic, single point] | Potency [5] 16.6 µM [cytotoxic, partial curve] | Potency [6] 33.2 µM [cytotoxic, single point] | Potency [7] 23.5 µM [cytotoxic, partial curve] | Potency [8] 18.7 µM [cytotoxic, partial curve] | Potency [9] 25.1 µM [cytotoxic, partial curve, poor fit]

COc1cc(-c2nn(C3CCC(N4CCN(C(C)=O)CC4)CC3)c3ncnc(N)c23)ccc1NC(=O)c1cc2ccccc2n1C (stereo not given)
inconclusive: Potency [1] 6510 nM [cytotoxic, single point] | Potency [2] 26.4 µM [cytotoxic, single point] | Potency [10] 33.2 µM [cytotoxic, single point] | Potency [3] 23.5 µM [cytotoxic, partial curve]
inactive: Potency [4] | Potency [7]

c1nc2nc(Nc3ccc(N4CCOCC4)cc3)nc(NC3CCCCC3)c2[nH]1
inconclusive: Potency [2] 3.72 µM [cytotoxic, full curve] | Potency [10] 3.32 µM [cytotoxic, full curve] | Potency [4] 2.96 µM [cytotoxic, full curve] | Potency [6] 2.96 µM [cytotoxic, full curve] | Potency [9] 1.12 µM [cytotoxic, full curve]
active: Potency [1] 317 nM and 366 nM | Potency [7] 2.35 µM

CC[C@H](NC(C)C)[C@H](O)c1ccc(O)c2[nH]c(=O)ccc12
inconclusive: Potency [1] 18600 nM [cytotoxic, partial curve] | Potency [11] 2.82 µM [cytotoxic, single point]
inactive: Potency [2] | Potency [10] | Potency [5] | Potency [6] | activity (max response) [9] 3.1% and 13.3%

CCCc1nn(C)c2c(=O)[nH]c(-c3cc(S(=O)(=O)N4CCN(C)CC4)ccc3OCC)nc12
inactive: Potency [2] | Potency [10]
inconclusive: Potency [1] 21.1 µM [cytotoxic, single point] and 51.7 nM [cytotoxic, full curve, poor fit] | Potency [12] 33.2 µM [cytotoxic, single point] | Potency [4] 37.2 µM [cytotoxic, single point] | Potency [5] 33.2 µM [cytotoxic, single point] | Potency [6] 16.6 µM [cytotoxic, partial curve, poor fit] | Potency [7] 11.8 µM [cytotoxic, full curve, poor fit] | Potency [8] 18.7 µM [cytotoxic, partial curve, poor fit]

CO[C@@H]1COCC[C@@H]1N[C@@H]1CC[C@@](C(=O)N2CCc3ncc(C(F)(F)F)cc3C2)(C(C)C)C1
inconclusive: Potency [3] 37.1 µM [cytotoxic, single point] | Potency [12] 33.1 µM [cytotoxic, single point] | Potency [4] 29.5 µM [cytotoxic, single point] | Potency [5] 37.1 µM [cytotoxic, single point] | Potency [6] 23.4 µM [cytotoxic, single point] | Potency [7] 26.3 µM [cytotoxic, single point] | Potency [8] 33.1 µM [cytotoxic, single point]
inactive: Potency [1] | Potency [2]

CCNC(=O)Nc1ccc(-c2nc3c(c(N4CCOC[C@H]4C)n2)CCN(C2COC2)C3)cc1
inconclusive: Potency [2] 4.18 µM [cytotoxic, full curve] | Potency [10] 2.96 µM [cytotoxic, partial curve] | Potency [12] 0.743 µM [cytotoxic, full curve] | Potency [5] 1.32 µM [cytotoxic, full curve] | Potency [6] 1.32 µM [cytotoxic, full curve] | Potency [7] 1.48 µM [cytotoxic, full curve] | Potency [8] 2.64 µM [cytotoxic, full curve]
active: Potency [1] 820 nM
